Measurements reported in the supplement of paper PMC5499739.
Whole data set: some 16,000 sequences, median “Z-score” near -0.37, cut for the highest 2% near 3.1. Some of the results follow.

The sequences below were run on RBM10 RRM1-ZnF-RRM2 (GST-tagged construct) (assay: RNAcompete 7-mer binding Z-score; higher = stronger binding preference).
In short: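 Bound RNA was identified by microarray hybridisation after GST-tagged RBM10 constructs (20 pmol) had been mixed with 1.5 nmol of a designed pool of 241 399 RNAs up to 41 nt, transcribed from microarray-derived DNA templates. Binding ran for 30 min at 4°C in 1 ml Hepes pH 7.8 buffer with KCl, NaCl, glycerol, DTT, BSA and glutathione Sepharose beads, with four 2-min washes at 4°C afterwards. For every heptamer motif, a one-sided Z-score for enrichment was computed across the probes that contained it.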

Row | Sequence | RNAcompete 7-mer binding Z-score
1 | GUCGCGC | -0.296
2 | CGAGGUA | 1.8
3 | GCGGUUU | 0.567
4 | UAUCGAA | -0.3
5 | UACCUGA | -0.606
6 | AUAAACA | -0.231
7 | GUCAUAC | -0.435
8 | AACGACU | -0.497
9 | CCACUAG | -0.522
10 | CCUUUAC | -0.952
11 | UGCAUCA | -0.511
12 | GCGAGUU | 0.0641
13 | AUUCCAC | -0.774
14 | UAUAUAU | -0.42
15 | GAACAUC | -0.519
16 | UAAGAGG | 1.34
17 | AAUUCUU | -0.734
18 | UAUUAGG | 0.712
19 | CAUAUCA | -0.519
20 | GCAAACG | 0.381
21 | CUAGAAC | -0.519
22 | ACAAGGA | 1.94
23 | CUCAAAG | -0.493

Row | Sequence | RNAcompete 7-mer binding Z-score
24 | ACCUAUC | -0.923
25 | UGCCAUG | -0.653
26 | GGGUUCU | 0.563
27 | UGAGACG | 0.556
28 | AAUUCGC | -0.588
29 | GGGCCGC | 0.359
30 | GCUGAGA | 0.0058
31 | CUCCGCC | -0.836
32 | UGGCGCA | 0.661
33 | AGAACGU | -0.351
34 | UGUUCGU | -0.26
35 | AAAGACC | -0.61
36 | UAUAACA | -0.347
37 | AGGCGUG | 1.31
38 | UUAAUUG | -0.46
39 | ACUGAUA | -0.344
40 | UAGAUAG | 0.385
41 | GGUUCCG | 0.257
42 | UAACCAA | -0.424
43 | GCUAAUC | -0.395
44 | UAGUAAG | 0.465
45 | GUGGACU | 1.24
46 | UGCCACG | -0.435

Row | Sequence | RNAcompete 7-mer binding Z-score
47 | AUACAAG | 0.33
48 | UUUGCAA | -0.602
49 | UUCGUCU | -0.544
50 | UAUGCAC | -0.435
51 | UACCCCC | -0.511
52 | AUUGGCA | 0.541
53 | UACGAUU | -0.395
54 | AUAGGGA | 2.9
55 | CUGCCGA | -0.715
56 | CCUUACC | -0.712
57 | CUGAACG | -0.398
58 | ACUGGAC | -0.0452
59 | UCUCGAU | -0.715
60 | GCAGUAG | 0.891
61 | CCCUUGU | -0.777
62 | GAGGACU | 0.534
63 | GGACAAC | 0.844
64 | ACCACCU | -0.599
65 | AAUUCCG | -0.694
66 | GAAUUCG | -0.231
67 | GCACAGC | -0.0343
68 | GGUGAGC | 2.6
69 | UAUGCGA | 0.0714

Row | Sequence | RNAcompete 7-mer binding Z-score
70 | CUUCAUU | -0.712
71 | CAUCUCA | -0.814
72 | AAACCUG | -0.471
73 | AUACUGC | -0.577
74 | CCGAUGU | -0.759
75 | AUUGAAC | -0.337
76 | GCUGUGA | -0.0889
77 | UAGUCCU | -0.697
78 | CUACCGC | -0.77
79 | UUAGGAA | 0.971
80 | AAUAUCU | -0.61
81 | CAGAAUG | 0.545
82 | GCCCUUG | -0.777
83 | AAGGGGA | 4.44
84 | UUUCAGU | -0.442
85 | AUGAGCC | -0.3
86 | CUAUCUU | -0.719
87 | UCAUCUU | -0.887
88 | AGGCCUU | -0.653
89 | UCUCAGG | -0.267
90 | GACGUUG | 0.0604
91 | CUACCUU | -0.865
92 | CUCAUGG | -0.293

Row | Sequence | RNAcompete 7-mer binding Z-score
93 | UAAUGAC | -0.231
94 | AGUCCAG | -0.078
95 | CGGGCUC | 0.0604
96 | UGUCACG | -0.566
97 | GUUGAUA | 0.261
98 | CCUGGCG | -0.0925
99 | UAAUAUC | -0.57
100 | AUGAAUA | -0.133
101 | UACUAGC | -0.617
102 | UCCUGAU | -0.803
103 | UAGGAGC | 1.74
104 | CUUGCUG | -0.814
105 | GUCUCUA | -0.646
106 | UGUCGGG | 0.956
107 | UCGCCUA | -0.664
108 | CAGUUCU | -0.905
109 | CUGCCUC | -0.912
110 | GCUCAUU | -0.836
111 | UCGCUCA | -0.694
112 | CGGUCAU | -0.326
113 | UGCGCUU | -0.744
114 | AUGCUGA | -0.0488
115 | CCGGCGC | -0.588

Row | Sequence | RNAcompete 7-mer binding Z-score
116 | ACCUCUC | -0.894
117 | AUAAAUA | -0.271
118 | GACAUUC | -0.555
119 | CCCCAGC | -0.449
120 | CCAUCUG | -0.828
121 | CCGGUAG | 0.315
122 | UCUCCCU | -0.774
123 | ACUUUGC | -0.857
124 | UCUCACA | -0.588
125 | AAGCAAU | -0.00512
126 | UGAGCAC | -0.107
127 | AAAGGAU | 3.03
128 | CGAGGCU | 0.217
129 | CUGAUUC | -0.799
130 | UAUUCUU | -0.85
131 | GUCUUCG | -0.366
132 | UUACAUU | -0.686
133 | CUUAGUC | -0.712
134 | GGUUCAU | 0.239
135 | CCGGGCU | -0.337
136 | GGCCAAC | -0.0962
137 | UUUGCUC | -0.916
138 | CAAGGGU | 2.85

Row | Sequence | RNAcompete 7-mer binding Z-score
139 | ACGAUGG | 1.82
140 | CCCUCUA | -0.795
141 | AUCACAG | -0.103
142 | AUAUACU | -0.439
143 | AUCUUGU | -0.803
144 | AUUAAAA | -0.442
145 | GUAGCAU | -0.173
146 | ACGCUUC | -0.785
147 | CGCAGUG | -0.027
148 | AUUCACG | -0.435
149 | CAAGGUA | 1.94
150 | AACUAGA | -0.573
151 | GGUCGAU | 0.261
152 | CAAGAUU | -0.53
153 | GGUCACA | 0.417
154 | GCUCUGG | -0.14
155 | UAUGGAC | 1.46
156 | CCGUUGC | -0.675
157 | AAAGUCG | 0.00216
158 | AGCCGUC | -0.497
159 | AAUACAC | -0.395
160 | UAUCGGC | -0.46
161 | UCCCCUU | -0.737

Row | Sequence | RNAcompete 7-mer binding Z-score
162 | GUUAGAU | 0.228
163 | CUUACGU | -0.905
164 | GCCUUGA | -0.653
165 | UCAAAAG | -0.482
166 | CAAAUAC | -0.449
167 | UUCGUUG | -0.304
168 | AGAAUUA | -0.158
169 | CAGUCGC | -0.246
170 | CCAUGUA | -0.355
171 | CCCCUGC | -0.73
172 | CUGCGCC | -0.876
173 | AAUAAAC | -0.457
174 | CUGGUGC | -0.205
175 | UCAGGAU | 0.21
176 | AAAACGC | -0.235
177 | AUCGCCG | -0.672
178 | UUAUGGC | -0.315
179 | AUAACAG | 0.188
180 | CACCGGC | -0.114
181 | ACAUACG | -0.0306
182 | AUAAAUU | -0.522
183 | CUAGGAU | 0.323
184 | AAGUGCC | -0.402
